Some of the results follow. Most values come without repeats; read them as rough.

Our source for the cell count values is the supplement of paper PMC4604168 (melanoma cell lines).

Test in all cases: cell count relative to DMSO control; melanoma cells; higher = more viable cells
Holding throughout (details): library dose: low library concentration; 72 h; first compound 0.4 µM

Experiment [1] relates to COLO792.
Experiment [2] concerns COLO800.
The subject of experiment [3] is COLO829.
Experiment [4] deals with G361.
For experiment [5], the system named is IPC-298.
For experiment [6], the system named is IST-MEL1.
The test system of experiment [7] is LB2518-MEL.
The subject of experiment [8] is LOXIMVI.
Experiment [9] deals with MEL-HO.
Experiment [10] deals with MZ2-MEL.
The subject of experiment [11] is MeWo.
Experiment [12] relates to RPMI7951.
Experiment [13] relates to RVH-421.
For experiment [14], the system named is SkMel28.
The subject of experiment [15] is SkMel2.
For experiment [16], the system named is SkMel30.
The test system of experiment [17] is SkMel5.
Experiment [18] deals with UACC257.
For experiment [19], the system named is UACC62.
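Note: cell number obtained by counting DAPI-stained nuclei in high-throughput microscope images with image analysis software, screen run in 1,536-well plates.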

With `C[C@@H](N)c1ccc(C(=O)Nc2ccnc3[nH]ccc23)cc1` + COc1cc(Nc2ncc(F)c(Nc3ccc4c(n3)NC(=O)C(C)(C)O4)n2)cc(OC)c1OC [Tamatinib] (partner dose 0.4 µM), the cell count stood at 40.8% in [1]; 170% in experiment [2]; 93.6% in experiment [3]; 92.4% in [4]; 79.2% in [5]; 88.4% in experiment [6]. Besides, the cell count in experiment [7] is 78.5%; in experiment [8], 103%; in experiment [9], 67.3%; in experiment [10], 89.5%; in [11], 70.2%; in experiment [12] it was 75.7%. In addition, the cell count in [13] came to 79.3%; in [14] it was 70.9%; in [15], 91.3%; in experiment [16], 120%; in [17], 79.7%; in experiment [18], 56.4%. This compound showed a cell count in experiment [19] of 68.8%.
In the case of `Cn1sc(=O)n(Cc2ccccc2)c1=O` + CC(C)(C)c1cnc(CSc2cnc(NC(=O)C3CCNCC3)s2)o1 [SNS-032] (partner dose 0.01 µM), the cell count came out at 97.3% in experiment [1]; 82.3% in [2]; 98.6% in experiment [3]; 94.1% in [4]; 102% in experiment [5]; 92.9% in experiment [6]. Moreover, the cell count in [7] was 86%; in [8], 79%; in experiment [9] it was 94.7%; in [10], 93.9%; in experiment [11], 100%; in experiment [12] it was 87.7%. For the same compound, the cell count in experiment [13] was 82.3%; in experiment [14] it was 78.1%; in experiment [15], 100%; in experiment [16], 94%; in experiment [17], 91.4%; in [18] it was 81.7%. This compound also displayed a cell count in experiment [19] of 78.7%.
For the compound `C[C@@H](N)c1ccc(C(=O)Nc2ccnc3[nH]ccc23)cc1` + Oc1cc(-c2nc(-c3ccccc3)[nH]c2-c2ccncc2)ccc1Cl [L779450] (partner dose 0.2 µM), the cell count in [1] is 99.8%; in [2], 149%; in [3], 130%; in experiment [4], 91.9%; in experiment [5] it was 91.6%; in experiment [6], 101%. Besides, the cell count in [7] came out at 107%; in experiment [8] it was 78.9%; in experiment [9], 66.4%; in experiment [10], 54.8%; in experiment [11], 87.8%; in experiment [12], 81.8%. The cell count in experiment [13] stood at 65.1%; in experiment [14] it was 62.3%; in experiment [15] it was 97.2%; in experiment [16] it was 98.6%; in [17], 89.2%; in experiment [18], 73.8%. Further, in [19], the cell count was 59.7%.
